# Assay results published in the supplement of paper PMC10037445.
# The full ranking holds about 2,900 compounds; the median of “NF-kB SEAP reporter activity, fold change vs agonist alone” is about 0.99, and the highest 2% start at about 2.6. This is one part of the list.
# How the values were obtained:
# [1] = tested on: RAW-Dual; assay: NF-kB SEAP reporter activity, fold change vs agonist alone; higher = enhanced NF-kB activity; settings: library stock concentration (final ~1000-fold dilution): 10 mM
# Procedure, shortened: (§1)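 RAW-Dual macrophages were seeded in DMEM at 50,000 cells/well in 384-well plates, given 50 nL of library stock by pin tool, and given a PRR agonist 1 h later. Plates were held at 37 °C, 5% CO2 for 20 hours, after which supernatant was read for IRF by QuantiLuc luminescence and for NF-κB by QuantiBlue absorbance at 620 nm. Reporter activity is expressed as fold change over wells that received agonist alone. A well was called cytotoxic when IncuCyte confluency fell below 70% of agonist controls in both mask sets.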
# [2] = tested on: RAW-Dual; assay: NF-kB SEAP reporter activity, fold change vs agonist alone; cytotoxicity flag (confluency mask): not cytotoxic; higher = enhanced NF-kB activity
# Procedure, shortened: as §1
# [3] = tested on: RAW-Dual; assay: NF-kB SEAP reporter activity, fold change vs agonist alone; cytotoxicity flag (confluency mask): cytotoxic (confluency <70% of control); higher = enhanced NF-kB activity
# Procedure, shortened: as §1
# [4] = cytotoxicity flag (confluency mask): not cytotoxic, agonist: Imiquimod (TLR7) […]
# [5] = cytotoxicity flag (confluency mask): not cytotoxic, agonist: MPLA (TLR4) […]
# [6] = agonist: ODN 1826 (TLR9) 0.5 ug/mL
# [7] = agonist: Pam2CSK4 (TLR2/6) 0.1 ug/mL
# [8] = agonist: Pam3CSK4 (TLR2/1) 0.1 ug/mL
smiles,measurement,setting,value
CC(NC(C)(C)C)C(=O)c1cccc(Cl)c1.Cl (stereo not drawn),NF-kB SEAP reporter activity,[1]; [4],0.904
same,NF-kB SEAP reporter activity,[1]; [5],0.762
CC(NC(C)(C)C)C(=O)c1cccc(Cl)c1.Cl (stereo not drawn) (library stock concentration (final ~1000-fold dilution): 10 mM),NF-kB SEAP reporter activity,[2]; agonist: LPS (TLR4) 0.1 ug/mL,0.905
same,NF-kB SEAP reporter activity,[2]; [6],0.938
same,NF-kB SEAP reporter activity,[2]; [7],1.02
same,NF-kB SEAP reporter activity,[2]; [8],1.07
COc1cc(C2c3cc4c(cc3C(O)C3COC(=O)C23)OCO4)cc(OC)c1OC (stereo not drawn),NF-kB SEAP reporter activity,"[1]; cytotoxicity flag (confluency mask): cytotoxic (confluency <70% of control), agonist: Imiquimod (TLR7) […]",1.61
same,NF-kB SEAP reporter activity,"[1]; cytotoxicity flag (confluency mask): cytotoxic (confluency <70% of control), agonist: MPLA (TLR4) […]",1.92
COc1cc(C2c3cc4c(cc3C(O)C3COC(=O)C23)OCO4)cc(OC)c1OC (stereo not drawn) (library stock concentration (final ~1000-fold dilution): 10 mM),NF-kB SEAP reporter activity,[3]; agonist: LPS (TLR4) 0.1 ug/mL,5.49
same,NF-kB SEAP reporter activity,[3]; [6],2.81
same,NF-kB SEAP reporter activity,[3]; [7],1.6
same,NF-kB SEAP reporter activity,[3]; [8],2.18
CN1CCN(C(=O)COc2ccc(C34CC5CC(CC(C5)C3)C4)cc2)CC1 (library stock concentration (final ~1000-fold dilution): 10 mM),NF-kB SEAP reporter activity,[2]; agonist: LPS (TLR4) 0.1 ug/mL,1.29
same,NF-kB SEAP reporter activity,[2]; [6],1.1
same,NF-kB SEAP reporter activity,[2]; [7],1.2
same,NF-kB SEAP reporter activity,[2]; [8],1.36
CN1CCN(C(=O)COc2ccc(C34CC5CC(CC(C5)C3)C4)cc2)CC1,NF-kB SEAP reporter activity,[1]; [4],0.743
same,NF-kB SEAP reporter activity,[1]; [5],1.34
CC1CCC2(OC1)OC1CC3C4CC=C5CC(OC6OC(CO)C(OC7OC(C)C(O)C(O)C7O)C(O)C6OC6OC(C)C(O)C(O)C6O)CCC5(C)C4CCC3(C)C1C2C (stereo not drawn),NF-kB SEAP reporter activity,[1]; [4],1.02
same,NF-kB SEAP reporter activity,[1]; [5],0.906
CC1CCC2(OC1)OC1CC3C4CC=C5CC(OC6OC(CO)C(OC7OC(C)C(O)C(O)C7O)C(O)C6OC6OC(C)C(O)C(O)C6O)CCC5(C)C4CCC3(C)C1C2C (stereo not drawn) (library stock concentration (final ~1000-fold dilution): 10 mM),NF-kB SEAP reporter activity,[2]; agonist: LPS (TLR4) 0.1 ug/mL,0.601
same,NF-kB SEAP reporter activity,[2]; [6],0.957
same,NF-kB SEAP reporter activity,[2]; [7],1.27
same,NF-kB SEAP reporter activity,[2]; [8],0.998
CC(=O)OC1CN2CCC1CC2.Cl (stereo not drawn),NF-kB SEAP reporter activity,[1]; [4],0.919
same,NF-kB SEAP reporter activity,[1]; [5],1.07
CC(=O)OC1CN2CCC1CC2.Cl (stereo not drawn) (library stock concentration (final ~1000-fold dilution): 10 mM),NF-kB SEAP reporter activity,[2]; agonist: LPS (TLR4) 0.1 ug/mL,1.09
same,NF-kB SEAP reporter activity,[2]; [6],0.909
same,NF-kB SEAP reporter activity,[2]; [7],1.08
same,NF-kB SEAP reporter activity,[2]; [8],1.03
CCC1CN2CCC3(C(=O)Nc4ccccc43)C2CC1/C(=C\OC)C(=O)OC (stereo not drawn),NF-kB SEAP reporter activity,[1]; [4],0.907
same,NF-kB SEAP reporter activity,[1]; [5],1.25
CCC1CN2CCC3(C(=O)Nc4ccccc43)C2CC1/C(=C\OC)C(=O)OC (stereo not drawn) (library stock concentration (final ~1000-fold dilution): 10 mM),NF-kB SEAP reporter activity,[2]; agonist: LPS (TLR4) 0.1 ug/mL,1.1
same,NF-kB SEAP reporter activity,[2]; [6],0.873
same,NF-kB SEAP reporter activity,[2]; [7],0.87
same,NF-kB SEAP reporter activity,[2]; [8],0.852
Nc1ncnc2c1ccn2C1OC(C(O)c2ccccc2)C(O)C1O (stereo not drawn),NF-kB SEAP reporter activity,[1]; [4],1.02
same,NF-kB SEAP reporter activity,[1]; [5],0.975
Nc1ncnc2c1ccn2C1OC(C(O)c2ccccc2)C(O)C1O (stereo not drawn) (library stock concentration (final ~1000-fold dilution): 10 mM),NF-kB SEAP reporter activity,[2]; agonist: LPS (TLR4) 0.1 ug/mL,0.957
same,NF-kB SEAP reporter activity,[2]; [6],1.03
same,NF-kB SEAP reporter activity,[2]; [7],0.892
same,NF-kB SEAP reporter activity,[2]; [8],1.19
CCC(C(N)=O)N1CCCC1=O (stereo not drawn),NF-kB SEAP reporter activity,[1]; [4],1.02
same,NF-kB SEAP reporter activity,[1]; [5],0.971
CCC(C(N)=O)N1CCCC1=O (stereo not drawn) (library stock concentration (final ~1000-fold dilution): 10 mM),NF-kB SEAP reporter activity,[2]; agonist: LPS (TLR4) 0.1 ug/mL,1.06
same,NF-kB SEAP reporter activity,[2]; [6],0.879
same,NF-kB SEAP reporter activity,[2]; [7],0.99
same,NF-kB SEAP reporter activity,[2]; [8],1.06
CC[N+](C)(CC)CCOC(=O)C(O)(c1ccccc1)c1ccccc1 (library stock concentration (final ~1000-fold dilution): 10 mM),NF-kB SEAP reporter activity,[2]; agonist: LPS (TLR4) 0.1 ug/mL,0.821
same,NF-kB SEAP reporter activity,[2]; [6],0.989
same,NF-kB SEAP reporter activity,[2]; [7],0.934
same,NF-kB SEAP reporter activity,[2]; [8],1.39
CC[N+](C)(CC)CCOC(=O)C(O)(c1ccccc1)c1ccccc1,NF-kB SEAP reporter activity,[1]; [5],1.01
